± gives the standard deviation. Whole data set: some 5,500 sequences, median “pre-steady-state target cleavage rate” near 0.1, cut for the highest 2% near 0.64. The entries are a selection whose mix differs from that of the whole data set.
Each sequence was assayed on MIWI (PIWIL1) piRISC loaded with piRNA #2 (30 nt) (assay: pre-steady-state target cleavage rate (min^-1); MIWI and MILI are mouse PIWI proteins and EfPiwi is from a freshwater sponge; tags in brackets are library labels; higher = faster piRNA-guided slicing of the target). Conditions: guide: piRNA #2 5'p-UUAGGUAACCCAGUAGAUCCAGAGGAAUUC; auxiliary factor: 500 nM mouse GTSF1.
How it was run: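 In HEPES–potassium acetate buffer at 33 °C, […] transcribed, DNA-blocked target RNA library was mixed with 1 nM active affinity-purified piRISC carrying one synthetic guide, with or without 500 nM GTSF1 partner protein, for 0–8 or 0–960 min. Uncleaved targets were sequenced and normalised to depth and to weakly complementary targets; three trials were pooled and k3 was capped at 0.0001 min^-1. The pre-steady-state cleavage rate followed from a burst-and-steady-state fit.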

Sequence	pre-steady-state target cleavage rate
CUUAACCUCUGGUUCUACUGGGAUACCUAA	0.0765 ± 0.02
CUUUUCCUCUGGAUCUACUGGGUUACCGAA	0.23 ± 0.05
CUAAACCUCUGGAUCUACUGGGUUACCUAA	0.266 ± 0.04
CAAUACCUCUGGAUCUACUGGGUUAGCUAA	0.343 ± 0.065
CAAUUCCUGUGGAUCAACUGGGUUACCUAA	0.418 ± 0.039
CUUAUGCUCUGGAUCUAGUGGGUUACCUAA	0.0604 ± 0.0069
CUUUUCCUCUGGAUCUACUGGGUUUGGAUA [g7:g27:cont:t1A]	0.00697 ± 0.004
CUUAUCCUCUCGAUCUACUGGGUUAGCUAA	0.34 ± 0.033
CUUUACCACUGGAUCUACUGGGUUACCUAA	0.442 ± 0.039
CUAUUCCACUGGAUCUACAGGGUUACCUAA	0.274 ± 0.032
CUUAUCCUCUGGAUCUACUGGGUUACCCAA	0.391 ± 0.13
CUUAAGGUCUGGAACUACUGGGUUACCUAA	0.161 ± 0.045
GAUUUCCUCUGGAUCUACUGGGUAACCUAA	0.101 ± 0.025
GAAUUCCUCUGGAUCUACCUGGGUUACCUAA	0.00478 ± 0.0045
CUUAUCCUGUGGAUCUAGUGGGUUACCUAA	0.176 ± 0.019
CUUAUCCUGUGGAUCUACUGGGAUACCUAA	0.214 ± 0.029
CAAUUCCUCUGGAUCUACUGGGUUACCUAA [g2:g29:cont:t1A]	0.494 ± 0.069
GAAUUCCUCUGGAUCUACUGGGUUUCGUAA	0.248 ± 0.044
CUAUUCCUCUGGAUCUACGGGUUACCUAA	0.062 ± 0.012
CAAUUCCUCUGCAUCUACUCGGUUACCUAA	0.0982 ± 0.015
CAAUUCCUCUGGAUCUACUCGCUUACCUAA	0.00431 ± 0.0041
CUUAUCCUCUGCAUCUUCUGGGUUACCUAA	0.194 ± 0.017
CUUAAGGAGAGCUACUACUGGGUUACCUAA	0.00344 ± 0.0021
CUUAACCUCUGGAUCUACUGGGUGACCUAA	0.145 ± 0.014

Sequence	pre-steady-state target cleavage rate
CAAUUCCUCUGGAUCUACUCGGUUACCAAA	0.0973 ± 0.039
CUUAAGGACUGGAUCUACUGGGUUACGAUA	0.0332 ± 0.027
CUAUUCCUCUGGAAUCUACUGGGUUACCUAA	0.387 ± 0.046
CUUAACCGUCUGGAUCUACUGGGUUACCUAA	0.271 ± 0.03
CUUAUCCUCUGGAUCUACAGGCUUACCUAA	0.028 ± 0.0083
CUUAAGCUCUGGAUCUACUGGGUGUACCUAA	0.0559 ± 0.012
CUAUUCCUCUGGAUCUAGUGGGUUACGUAA	0.211 ± 0.03
CUUAUCCUCUGGAUCUACUCGGUUACCUAA	0.0981 ± 0.018
GAAUUCCUCUGGAUCUACUGUGUUACCUAA	0.673 ± 0.06
CUUUUCGUCUGGAUCUACUGGGUUACCUUA	0.261 ± 0.042
CUUAAGGUCUGGAUCUACUCGGUUACCAAA	0.011 ± 0.0098
CAUUUCCUCUGGAUCUACUGGGUUACCUAA	0.541 ± 0.059
CUUAAGGUCUGGAUCUACUGGGAUUACCUAA	0.0268 ± 0.0077
CUAUUCGUGUGGAUCUACUGGGUUACCUAA	0.405 ± 0.033
CUUAUCCACUGGAUCAACUGGGUUACCUAA	0.414 ± 0.043
CUUAAGCUGUGGAUCAACUGGGUUACCUAA	0.142 ± 0.034
CUUAUCCUCUGGAUCUACUGCCUUACCUAA	0.086 ± 0.019
CUAUUGCUCUGGAUCUACUGGCUUACCUAA	0.062 ± 0.012
CUUAUCCUCUGGAUCUACUGGGUUUCCUUA	0.252 ± 0.071
CUUAACCUGUGCAUCUACUGGGUUACCUAA	0.236 ± 0.022
CUUAUCCUUGGAUCUACUGGGUUACCUAA	0.42 ± 0.029
CUUAACCUCUGGAUCUACUGGGUUACGUAA	0.509 ± 0.031
CUUAACCUCUGGUUCUACUGGGUUACCUAA	0.479 ± 0.042
CUUUUCCUCUGGAUCUACUCGGUUACCUAA	0.104 ± 0.015

Sequence	pre-steady-state target cleavage rate
GAUUUGCUCUGGAUCUACUGGGUUACCUAA	0.071 ± 0.021
GUUUUCCUCUGGAUCUACUGGGUUACCUAA	0.0626 ± 0.026
CUUAUCCUCAGGAUCUACUGCGUUACCUAA	0.573 ± 0.075
CAAUUCCUCAGGAUCUACAGGGUUACCUAA	0.335 ± 0.026
CUUUUCCUCUGGAUCUACUCGGAUACCUAA	0.0163 ± 0.0085
CUUAUCCUCUCGGAUCUACUGGGUUACCUAA	0.484 ± 0.074
CAAUUCCUCUGGUACUACUGGGUUACCUAA	0.504 ± 0.07
CUAUUCCUCUGGAUGUACUGCGUUACCUAA	0.507 ± 0.071
CUUAAGGAGAGGAUCUACUGGGUUACCCUAA	0.00802 ± 0.0041
CUUUUCCUCUCCUUCUACUGGGUUACCUAA	0.494 ± 0.043
CUUAUCCACUGGAUCUACUGGGAUACCUAA	0.387 ± 0.044
CAAAUCCUCUGGAUCUACUGGGUUACCUAA	0.47 ± 0.069
CUUAAGCUCUCGAUCUUCUGGGUUACCUAA	0.461 ± 0.048
CUUAAGGUCUGGUUCUACUGGGUUACCAAA	0.0505 ± 0.013
CUUAAGGAGUGGAUCUACUGGGUUAGCCUAA	0.0298 ± 0.01
CUUAACCUCUGGAUCUACUGGGAUUCCUAA	0.0311 ± 0.011
CUUAACCUCUGCAUCUUCUGGGUUACCUAA	0.219 ± 0.019
CUUUUCCUCUGGAUCUACUGGGGUUACCUAA	0.0416 ± 0.011
CAAUUCCUCUGGAUCUAUUGGGUUACCUAA	0.381 ± 0.052
CUUAAGGACUGGAUCUACUGGGUUAUCUAA	0.1 ± 0.052
CUAUUCCUCUGGACUACUGGGUUACCUAA	0.263 ± 0.037
GAAAUCCUCUGGAUCUACUGGGUUACGUAA	0.532 ± 0.058
CUUAAGGAGAGGAUCUACUAGGUUACCUAA	0.00547 ± 0.0027
